Assay results from the supplement of paper PMC3334620.
The full ranking holds about 33,000 sequences; the median of “E-score (-0.5 to 0.5)” is about -0.016, and the highest 2% start at about 0.32. This is one part of the list.

These sequences were tested against T1, Stp1 (UniProt B3LFK1) (assay: PBM E-score (8-mer binding enrichment) (E-score (-0.5 to 0.5)); higher = stronger / more preferred TF binding; most listed sequences are background and not binding sites). Conditions: protein concentration: 200 nM; construct: GST-full length.
T1 sequence: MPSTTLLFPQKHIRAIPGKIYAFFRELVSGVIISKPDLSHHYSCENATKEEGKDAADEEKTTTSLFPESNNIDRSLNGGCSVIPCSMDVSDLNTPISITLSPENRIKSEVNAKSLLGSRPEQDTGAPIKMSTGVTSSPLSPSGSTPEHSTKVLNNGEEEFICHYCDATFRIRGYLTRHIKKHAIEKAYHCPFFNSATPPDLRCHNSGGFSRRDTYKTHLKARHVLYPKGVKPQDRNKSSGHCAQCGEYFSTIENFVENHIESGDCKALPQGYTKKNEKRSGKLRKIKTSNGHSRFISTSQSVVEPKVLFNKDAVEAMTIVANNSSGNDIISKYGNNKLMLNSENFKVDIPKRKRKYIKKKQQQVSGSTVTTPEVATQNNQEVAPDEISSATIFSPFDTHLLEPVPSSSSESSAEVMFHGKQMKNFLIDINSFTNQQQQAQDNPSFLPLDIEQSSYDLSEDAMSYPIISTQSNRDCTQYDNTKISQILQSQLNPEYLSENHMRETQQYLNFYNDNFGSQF
In short: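 Masliner-normalised scans of fluorescent anti-GST signal were the basis for scoring. That signal came from GST-tagged yeast transcription factors applied at about 100-200 nM to double-stranded universal all-10-mer Agilent arrays on fresh or once-stripped slides. Each ungapped eight-base word, pooled with its reverse complement, received an E-score from the Universal PBM Analysis Suite.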

Sequence | PBM E-score
CTACTAAA | 0.00052
CTTGGTTA | -0.0742
CTGAGTGC | -0.236
CAGTCGGA | -0.127
ATAGATGC | 0.0729
AGATCTAC | -0.116
GCGGGCGA | 0.0158
AAGTTTTG | 0.078
CGAAACGA | 0.0741
ATAAATAC | 0.31
GTAAAGCA | 0.142
CCGGGCCA | -0.261
GAGAAGGA | -0.189
CACTATAG | 0.00757
AGCTCGGC | 0.2
CACATTAC | 0.157
AAAATGGG | -0.0484
AGCCACTA | 0.0379
CGGTCATC | -0.221
CCACGACC | -0.219
GCTACATA | 0.0431
AGCTACTC | -0.262
GAAGGTAA | 0.184
CTCAGATC | -0.00315
GAATCTCA | -0.178

Sequence | PBM E-score
CCCCACGG | 0.102
GGATTTAC | 0.172
CTCTTCTA | 0.0839
ACGTGCGG | 0.357
ATATCCTA | 0.0646
AAGAACTG | 0.101
ACTAATGC | 0.21
ACGCCGTC | 0.41
AATCATTG | -0.118
CTCAGACA | 0.0994
TGTGGGAA | -0.109
CCGACCTC | -0.311
GGCGTCGA | 0.306
ATCGTCCA | -0.186
ATACGCAC | 0.159
AGCCTGAT | -0.0416
CGTACACC | -0.0591
GCCCCGAC | -0.349
TACTGAAA | 0.282
ACGGAGTA | -0.0652
AGACATTG | -0.194
AACCAGTT | 0.143
AGCGCCGG | 0.174
GGCTAAGA | -0.0906
GGTGATCA | -0.0543

Sequence | PBM E-score
CAGGCTCA | 0.00607
GGTTATGA | 0.0343
AAGCTCCC | -0.284
TATTATAA | 0.0956
ACGTACAC | 0.0509
AGATGTCA | -0.0926
AGCCTCGG | -0.0283
AAAGGGCT | -0.0542
ACGCGCGT | 0.186
GCAGTTGA | 0.0711
CCCCAGCA | -0.326
AACTGCCC | -0.192
TACCAAGA | 0.0709
ATGTCGGC | -0.0688
ACAGTTTC | 0.063
AGGCCACT | -0.0843
TCGCAGAA | -0.046
AATAGTCT | -0.101
TACACCAA | -0.0511
AAGAGCCC | -0.0153
CCACAGGA | -0.0282
CCAAAACG | 0.107
ACTTCAAT | 0.119
ATTGTTGC | 0.153
AGTCCAAA | 0.0426

Sequence | PBM E-score
ATTCCCTA | 0.0472
CCTTTTCA | -0.0257
AAGCGCCA | 0.0796
CTGGCGTC | -0.144
CACCCGAC | -0.0916
CGGATATA | 0.29
CTTTGGAA | 0.026
CTACAATC | 0.161
ATCGCGTG | 0.0349
CAATACAG | -0.0422
CCGACAGG | -0.13
AAATTCGC | 0.117
CGCTGCTC | -0.111
CCTTAATC | -0.0629
TAAACAAA | 0.154
CGGCTTGA | 0.0356
CAACGCCC | 0.0959
CACCTCTA | -0.0826
CTGTTAAC | 0.14
ACTTAAAG | -0.176
ACCACCCC | -0.249
AATGTTAT | 0.0148
CCTTACCA | -0.0761
CCAGCACC | -0.269
AGGCTACA | -0.172

Sequence | PBM E-score
ACTCTCAA | -0.143
CAGGGCCC | -0.194
CGTATTTA | 0.232
GGCCAGTA | -0.0609
AGATCCCG | 0.0532
AAGGTTAG | -0.217
CGATCAGC | -0.0192
ATGAGGGC | -0.122
GGACCTCA | -0.179
GCTTCAAA | 0.187
AACGTGCC | 0.286
GGCACTGA | 0.312
AGCTTCTG | -0.133
CTAACTTC | 0.00261
AGAACATC | -0.0712
AATGTGCG | 0.18
ACAAAGGC | -0.0179
GAAATTCA | 0.108
ACTGATTC | 0.0186
CACGTGCA | 0.14
CTTAGCAA | 0.0573
CCGCAAGC | -0.0825
GTCGCGAC | 0.299
AACCTATG | 0.053
CGGTAAGC | -0.134

Sequence | PBM E-score
AGCTTAAA | 0.00683
GGGCTACA | -0.0511
TGCGGACA | 0.281
ACTCAAGT | 0.00487
AGTGTAGG | -0.0236
AGATTTTG | 0.0695
CACAGAGC | 0.0781
GACATAAC | 0.0645
CACCCGCA | -0.164
AACAACAT | -0.00072
GCGCTTAC | 0.0962
ACAGGGAC | -0.166
CTCCGTGC | 0.228
ACACTATA | 0.0726
CATGAGGC | 0.185
GTCTATAA | 0.0442
AGCTCCAT | -0.202
GGTATATA | 0.142
CTTATCGA | 0.0995
TAAACCCA | -0.14
ATCAACAG | 0.143
AGATAGAA | 0.0271
ACAAATCG | 0.0375
AGCATATG | -0.117
ATTGGGGC | -0.0829

Sequence | PBM E-score
AAGGCCCG | -0.146
AAGATAGG | -0.292
AAGAGCGT | 0.00991
GCTACGCA | -0.0274
ATTCACAC | 0.19
GCTTCTGA | 0.0764
GGAACTTA | -0.0446
AGACATGA | -0.0781
GAGTCAGC | -0.189
CCTAGGAC | -0.242
CCCCTCAC | -0.287
GCGATGCC | 0.319
GTGAGCAA | -0.0385
TGCTTCCA | -0.184
AGGGCCAG | -0.133
ACTGCAGT | -0.0716
CTTCTGGA | 0.0387
AGAATTCA | 0.105
GGCCTCCC | -0.301
ACTCCCAT | -0.0172
CCGGGACG | -0.25
CATCTCCA | -0.188
TTATACAA | 0.25
ATTGACTG | -0.0974
ATTTTCGG | 0.076

Sequence | PBM E-score
CGCTGTAA | 0.0911
ACGAACAT | -0.00251
ACACATTG | 0.0337
CAATAGCG | 0.00407
CTATTAAC | 0.0772
AGCCCTAC | 0.0199
GTGTTGCA | 0.127
GACATGCC | 0.0796
AGAAATCT | 0.197
GTCATCTA | 0.0354
ATAAGGAA | 0.00857
GGGATTAA | -0.0865
ACAGGAGA | -0.035
CATCCGAC | 0.0344
ACAGGATG | -0.0316
ACTCCCAG | -0.264
ATCAGCCG | 0.106
ACATCCGC | 0.205
TGGGAGAA | -0.189
GGTGCGCA | 0.0539
AGGTTTGC | 0.0228
ACTATGGC | -0.0227
ACTTGGAG | -0.115
AGTCGACT | 0.0504
ACAGATGT | -0.149

Sequence | PBM E-score
GCGCGCGA | 0.285
ACATTCCC | -0.00691
GACGAAAC | 0.192
TATTCAAA | 0.242
AGTGTGGA | -0.0557
ATTCGACG | -0.0394
ATACCCAC | -0.163
AAGATAAA | 0.31
AGTGTCAT | -0.0136
AGGACCGA | -0.194
CAGCGTGA | -0.188
AGGATTTA | 0.02
ATGTTTAG | 0.114
TCTCCCAA | -0.136
CTCATCAG | 0.0519
GCTTCACC | -0.153
CCTCTATC | -0.223
ACGCGAGG | 0.0793
AAGCGGTA | -0.0388
